Experimental data as given in PMC4336329 (PLoS ONE, 2015).
Out of some 310,000 compounds screened, about 14,000 (4.5%) showed an effect of 50% or more. The effect is printed as a negative number. The list shows a part of the results.

Target: human ether-à-go-go-related gene (hERG) potassium channel (human, UniProt Q12809)
Assay: primary screen, population patch clamp on CHO cells stably expressing hERG
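Further: peak tail current of the secondary pulse compared with the same well before compound.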

Sequence of human ether-à-go-go-related gene (hERG) potassium channel (Q12809 whole entry, looked up): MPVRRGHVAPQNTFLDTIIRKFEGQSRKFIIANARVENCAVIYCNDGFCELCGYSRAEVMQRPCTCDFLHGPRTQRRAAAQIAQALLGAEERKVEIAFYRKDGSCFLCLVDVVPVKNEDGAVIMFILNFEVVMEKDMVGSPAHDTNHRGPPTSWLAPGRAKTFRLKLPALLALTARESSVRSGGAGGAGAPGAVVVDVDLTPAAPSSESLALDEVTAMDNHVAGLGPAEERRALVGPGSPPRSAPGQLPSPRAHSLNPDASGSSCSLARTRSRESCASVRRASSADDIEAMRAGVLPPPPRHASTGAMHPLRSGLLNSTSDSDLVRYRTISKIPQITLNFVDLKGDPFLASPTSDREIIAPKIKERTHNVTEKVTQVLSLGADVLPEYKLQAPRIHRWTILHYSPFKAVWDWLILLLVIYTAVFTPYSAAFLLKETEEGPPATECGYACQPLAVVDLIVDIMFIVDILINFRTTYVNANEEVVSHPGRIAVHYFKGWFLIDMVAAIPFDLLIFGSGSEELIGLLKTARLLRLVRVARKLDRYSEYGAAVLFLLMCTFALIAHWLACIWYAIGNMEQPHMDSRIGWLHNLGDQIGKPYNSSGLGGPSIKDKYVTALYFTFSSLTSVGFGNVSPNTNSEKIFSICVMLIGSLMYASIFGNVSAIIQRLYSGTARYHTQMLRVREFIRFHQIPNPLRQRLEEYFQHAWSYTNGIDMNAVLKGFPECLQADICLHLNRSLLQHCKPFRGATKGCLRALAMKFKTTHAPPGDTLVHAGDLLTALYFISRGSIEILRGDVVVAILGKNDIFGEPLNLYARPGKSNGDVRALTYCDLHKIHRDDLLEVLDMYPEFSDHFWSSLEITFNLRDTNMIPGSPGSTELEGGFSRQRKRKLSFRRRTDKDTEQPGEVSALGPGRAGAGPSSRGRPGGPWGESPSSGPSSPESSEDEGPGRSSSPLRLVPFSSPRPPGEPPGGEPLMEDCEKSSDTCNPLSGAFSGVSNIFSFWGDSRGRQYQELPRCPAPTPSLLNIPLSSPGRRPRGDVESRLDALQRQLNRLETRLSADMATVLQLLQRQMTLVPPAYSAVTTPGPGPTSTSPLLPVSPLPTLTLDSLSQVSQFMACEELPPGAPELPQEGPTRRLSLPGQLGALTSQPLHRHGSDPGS

| SMILES | hERG current change (%, negative = inhibition) at 10uM |
| --- | --- |
| C=CCN(CC=C)C(=O)c1cccc(S(=O)(=O)N2c3ccccc3CC2C)c1 (stereo not drawn) | -27.9% |
| COc1ccc(Cn2nnnc2C(c2cc3cc(C)cc(C)c3[nH]c2=O)N2CCOCC2)cc1 (stereo not drawn) | -58.2% |
| COCCN1C(=O)c2ccc(C(=O)NCc3cccnc3)cc2C1=O | 5.99% |
| CC(=O)c1c(C)[nH]c(C(=O)NCCCN2CCCC2)c1C | 1.85% |
| CCOC(=O)C1CCCCN1Cc1cccc(Oc2ccccc2)c1 (stereo not drawn) | -3.31% |
| N#Cc1c(NC(=O)CSc2nc(N)cc(=O)[nH]2)sc2c1CCCC2 | 31.5% |
| O=C(Nc1cc(Cl)ccc1-n1cncn1)c1cccc(S(=O)(=O)N2CCOCC2)c1 | -61.9% |
| COc1ccc(C(=O)NC(=S)Nc2nnn(C)n2)cc1 | 18.6% |
| Cc1ccc(S(=O)(=O)N2CCOC2CNC(=O)C(=O)NCc2ccc3c(c2)OCO3)cc1 (stereo not drawn) | -4.16% |
| Cc1noc(C)c1CSCC(=O)Nc1nnc(CC(C)C)s1 | -21.3% |
| COc1ccccc1NC(=O)N1CCCC1C(=O)Nc1ccc(NC(C)=O)cc1 (stereo not drawn) | 12.9% |
| CCOC(=O)c1c(C)[nH]c(C(=O)COC(=O)/C=C/c2ccc(OCC#N)c(OC)c2)c1C | 9.14% |
| Cc1cc(C)cc(NC(=S)NC(=O)C2CC2)c1 | 3.72% |
| Cc1c(NC(C)c2cc(Cl)ccc2O)c(=O)n(-c2ccccc2)n1C (stereo not drawn) | -7.85% |
| Cc1ccc(OCC(=O)c2c(N)n(C)c(=O)n(C)c2=O)c([N+](=O)[O-])n1 | -8.05% |
| COc1cc(N=Nc2ccccc2C(=O)O)ccc1O | -3.28% |
| O=C(NC1CCCC1)c1cccc2c1C(=O)c1ccc(N3CCCCC3)cc1S2(=O)=O | -18.1% |
| CC(=O)Nc1ccc(S(=O)(=O)NCCC(=O)Nc2cccc(Cl)c2)cc1 | 8.56% |
| CCc1cc2c(=O)nc3n(c2s1)Cc1ccccc1/C3=C(/O)c1cccc([N+](=O)[O-])c1 | -4.6% |
| O=C1CC(=O)C(n2cncn2)C(c2c(F)cccc2Cl)C1 (stereo not drawn) | -1.83% |
| CSc1nc(N(C)NC(=O)c2ccc(F)cc2)c2ccccc2n1 | 3.42% |
| COCCCC1CCN(C(=O)C2CCC(=O)N(CCc3cccc(F)c3)C2)CC1 (stereo not drawn) | -9.75% |

| SMILES | hERG current change (%, negative = inhibition) at 10uM |
| --- | --- |
| COc1ccccc1-c1nnc(SCC(=O)NCc2c(C)c(Cl)cc(C(C)C)c2O)o1 | 7.46% |
| COc1ccc(NC(=O)c2cccc(S(=O)(=O)N3CCN(c4ccccc4)CC3)c2)c(OC)c1 | -20.8% |
| Cc1cccc(C)c1OCC(=O)NNC(=O)CNC(=O)c1ccc(OC(F)F)cc1 | -23.7% |
| CCC(=O)N(CCc1ccccc1)Cc1cc2cccc(C)c2[nH]c1=O | -14.4% |
| CCN(CC)c1ccc(/C=N\NC(=O)c2cccc3cc[nH]c23)cc1 | 16.7% |
| C[C@]12CS(=O)(=O)C[C@H]1SC(=S)N2c1ccccc1 | -0.916% |
| Cc1ccc(SCC(=O)OCC(=O)NC(C)c2ccc(Br)cc2)cc1 (stereo not drawn) | -5.53% |
| CC1CN(C2=NC(=O)/C(=C3/C(=O)N(Cc4ccc(F)cc4)c4ccccc43)S2)CC(C)O1 (stereo not drawn) | 17.2% |
| CC1(C)C(c2cccs2)=NC(c2ccccc2)N1O (stereo not drawn) | 8.83% |
| O=C(NC(=S)NC1CCS(=O)(=O)C1)c1ccccc1 (stereo not drawn) | 14.6% |
| CC1CCN(C(=O)c2cc(S(=O)(=O)N3CCCCC3)c[nH]2)CC1 | 19.9% |
| COC(=O)C1=C(c2cccc(OCc3ccccc3)c2)C[C@@H]2CC[C@H]1N2C(=O)NCCN1CCOCC1 | -9.46% |
| O=C(Nc1ccc(S(=O)(=O)Nc2cnc3ccccc3n2)cc1)c1cc(F)c(F)cc1Cl | -5.68% |
| O=C(NCc1cccnc1)c1ccc(-c2ccc(Cl)cc2)o1 | -37.1% |
| S=C(Nc1ccc2nsnc2c1)N1CCCCCC1 | 9.02% |
| NCCCC[C@H]1CN=C(N)N1CC1CCCCC1 | 21.9% |
| CC(C)c1ccccc1OCC(O)CN(CC(O)COc1cccc2ccccc12)C(C)C (stereo not drawn) | 0.448% |
| NC(=O)CN1C2CCC1CC(NC(=O)C1CC1)C2 (stereo not drawn) | 14.7% |
| CCOC(=O)Cn1cnc2c(sc3nc(C)cc(C)c32)c1=O | 4.82% |
| O=S(=O)(NCCS(=O)(=O)N1CCN(c2ccccc2)CC1)c1ccccc1 | 13.7% |
| O=C(CCC1CCCN(C2C3CC4CC(C3)CC2C4)C1)NCc1ccc(F)c(F)c1 (stereo not drawn) | -33.5% |
| CCOc1ccc(-c2nnc3ccc(SC(C)C)nn23)cc1 | -6.89% |

| SMILES | hERG current change (%, negative = inhibition) at 10uM |
| --- | --- |
| Cc1cc(SCC(=O)NC(=O)NCc2ccco2)nc2ccccc12 | -1.42% |
| Cc1ccc(C(=O)N2CCN(c3ncccn3)CC2)cc1NC1=NC2CS(=O)(=O)CC2S1 (stereo not drawn) | 5.37% |
| CC(C)CN(C(=O)COc1cccc(-n2cnnn2)c1)C1CCS(=O)(=O)C1 (stereo not drawn) | -12.6% |
| NC(=O)c1cc([N+](=O)[O-])ccc1NCc1ccccn1 | -73.8% |
| Cc1cccc(CSC(Nc2ccc(F)cc2)=C(C#N)C#N)c1 | -2.69% |
| C[C@H](NC(=O)c1[nH]cnc1C(=O)Nc1ccc(Cl)cc1)C(=O)OC(C)(C)C | 24.6% |
| CC(C)(C)c1ccc(C(=O)N2CCN(CCNC(=O)C(=O)NCc3ccccc3)CC2)cc1 | -57% |
| CC1CCCC(NC(=O)CCC(=O)NCc2ccccc2)C1C (stereo not drawn) | 11.5% |
| COc1cccc(-n2cnnn2)c1 | 4.13% |
| CC(C)(C)NCC(O)COc1cccc2c1C[C@H](O)[C@H](O)C2 (stereo partly drawn) | 29% |
| Cc1ccc(C)c(NC(=O)c2cc3ccccc3o2)c1 | -12.9% |
| O=C(NC(=S)Nc1cccc2cc(O)ccc12)c1ccccc1Br | 6.9% |
| CS(=O)(=O)c1ccc(-c2nnc(NC(=O)c3ccc(S(=O)(=O)N4CCCC4)cc3)o2)cc1 | -15% |
| O=C1CS(=O)(=O)c2ccccc2N1 | 22.5% |
| CCN1C(=O)C(CC(=O)NCCc2ccccc2)N(NC(=O)c2cccnc2)C1=S (stereo not drawn) | -21.1% |
| CC(C)(C)c1ccc(C(=O)NNc2cc(N3CCCCC3)nc(N3CCCCC3)n2)cc1 | 16.5% |
| CC(=O)Nc1ccc(NC(=O)CN(c2cccc(C)c2)S(C)(=O)=O)cc1 | -5.23% |
| COc1cccc(C(=O)Nc2ccccc2N2CCOCC2)c1 | -29.5% |
| CCn1nc(C)cc1C(=O)Sc1cccc(Cl)c1 | 13.3% |
| CCOC(=O)c1sc(NC(=O)CSc2nncn2C)nc1C | 9.68% |
| COc1ccccc1-c1cnnc(N/N=C/c2ccc(-c3cccc(Br)c3)o2)n1 | 12% |
| CSCCC(NC(=O)c1ccccc1)C(=O)NC1CCCC1 (stereo not drawn) | -3.79% |

| SMILES | hERG current change (%, negative = inhibition) at 10uM |
| --- | --- |
| Cc1n[nH]c(C)c1S(=O)(=O)N(CC(=O)NC1CCCC1)c1ccc(C(C)C)cc1 | 12% |
| COc1ccc(/C=C2/C(=O)N(c3cccc(F)c3)N=C2C)c(OC)c1 | 13.4% |
| COc1ccc(/C=C/c2cccc[n+]2C)c(O)c1.[I-] | 31.5% |
| Cc1ccc(-c2nn(-c3ccccc3)cc2C=O)o1 | -22.5% |
| Cc1cc(C)cc(NC(=O)NCc2nnc(SCc3ccccc3)n2C)c1 | 3.34% |
| O=C(c1cc(=O)[nH]c2ccccc12)N1CCN(c2ccc([N+](=O)[O-])cc2)CC1 | -65.1% |
| CCOC(=O)C1(CC2CCCCO2)CCN(Cc2cc(F)ccc2-n2cccn2)CC1 (stereo not drawn) | -57.1% |
| COc1ccc(N2C(=O)CCC(C(=O)NCCCN3CCC(C)CC3)C2c2ccc(OC)c(OC)c2)cc1 (stereo not drawn) | 5.44% |
| CCc1ccc(NC(=O)C/C(C)=N/NC(=O)COc2ccccc2C)cc1 | -53.2% |
| Cc1ccc(C)c(N2CCN(C(=O)c3csc4ccccc34)CC2)c1 | -12.9% |
| Cc1c(C)c2c(C)nn(-c3ccccc3)c2[nH]c1=O | 16.8% |
| CCOC(=O)Nc1ccc2c(CN(C)Cc3ccc(F)cc3)cc(=O)oc2c1 | 8.06% |
| COc1ccccc1N1CCN(C(=O)c2cc(C3CC3)on2)CC1 | -24% |
| Cc1c(C)c2ccc(OCC(=O)N3CCC[C@@H]3C(=O)O)c(C)c2oc1=O | 17.1% |
| O=S(=O)(NCc1cn2ccccc2n1)c1cc(F)ccc1F | 8.31% |
| O=C(COc1ccc([N+](=O)[O-])cc1)NNC(=O)Nc1cccc(F)c1 | -11.3% |
| COc1cc(/C=C(\C#N)C(=O)Nc2ccccc2)ccc1OCCN1CCOCC1 | -21.7% |
| Cc1ccc(NC(=O)c2ccccc2NS(=O)(=O)c2ccc(Cl)s2)cc1S(=O)(=O)N1CCOCC1 | 0.321% |
| COc1cccc(C(=O)Nc2nc(C)cs2)c1 | -7.15% |
| Cc1ccc(C(=O)C2=C(O)C(=O)N(Cc3cccnc3)C2c2ccc(Cl)cc2)o1 (stereo not drawn) | 20% |
| CCCn1c(SCC(=O)NC)nnc1C(C)C | 16.7% |
